Out of some 410,000 compounds screened, about 5,000 (1.2%) were called active. Inconclusive means that the source gave no clear call. Such entries were picked first, then a sample of the others. Calls come from the whole dose curve; as a rule, active = well fitted inhibition curve with a large enough effect; inconclusive = small, poorly fitted or top-dose-only effect; inactive = no such curve, though single readings can be large or run the other way. Potencies of inconclusive entries are doubtful fits and often do not repeat.
test: qHTS for Inhibitors of TGF-b; details: HepG2 CAGA-GFP TGF-b/SMAD3 reporter, GFP fluorescence, 18 h, TGF-beta stimulated, 500 pg/mL final; series mostly up to 46.1 µM; activity, negative = inhibition: at the top concentration; note: nearly all actives have a fitted effect of over 65% in size
Procedure, shortened: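 Inhibition of TGF-beta-driven CAGA-GFP reporter expression in HEPG2 cells is measured by cellular GFP fluorescence after 18 h stimulation with 500 pg/mL recombinant TGF-beta in 1% FBS medium at 37 degrees C.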
% is set by controls: 0 for no effect and ±100 for the full control effect; potency is the fitted concentration of half-maximal effect; tags give direction and shape of the fitted curve.

Row | Compound | activity, negative = inhibition | Potency
1 | COc1ccc([C@H]2C[C@H](O)[C@@H](n3cc(C4CC4)nn3)CN2Cc2cccs2)cc1 | inactive: 11.1% | 
2 | O=C(Nc1ccncc1)c1sc2ccccc2c1Cl | inactive: -30.4% | 
3 | CCCC(=O)N1CCN(c2nc3ccc(Br)cc3s2)CC1 |  | inconclusive: 14.1 µM [inhibitor, single point]
4 | CSCC[C@H](NC(=O)OC(C)(C)C)c1nnc(SCc2ccc(F)cc2)o1 |  | inconclusive: 35.5 µM [inhibitor, single point]
5 | Cn1nccc1C(=O)OCC(=O)Nc1ccccc1Cl | inactive: 36.6% | 
6 | CC(C)(C)NC(=S)N1CCC2CC1c1cc(-c3ccc4c(c3)OCO4)ccc12 (stereo unspecified) | inactive: -2.66% | 
7 | Cc1cccc(NC(=O)CSc2nc(C)c(CC(=O)c3ccc(Br)cc3)c(C)c2C#N)c1C |  | inconclusive: 2.82 µM [inhibitor, single point]
8 | CCc1nnc(NC(=O)CSc2nc(-c3ccccc3)cc(-c3ccc(F)cc3)c2C#N)s1 | inactive: 15.1% | 
9 | O=C(CN(C(=O)Cn1nnc(-c2ccc(F)cc2)n1)c1ccc(F)c(Cl)c1)NCC1CCCO1 (stereo unspecified) |  | inconclusive: 2.51 µM [inhibitor, full curve, poor fit]
10 | Cc1ccc(C)c(NC(=O)/C(C#N)=C/c2cn(CC(=O)NCc3ccco3)c3ccccc23)c1 |  | inconclusive: 17.8 µM [inhibitor, single point]
11 | Cc1oc(-c2cccc(Cl)c2)nc1CN1CCCC(C(=O)NC(C)c2ccc3c(c2)OCCO3)C1 (stereo unspecified) |  | inconclusive: 17.8 µM [inhibitor, single point]
12 | O=C(COC(=O)Cc1cccc(C(F)(F)F)c1)Nc1ccc2[nH]c(=O)[nH]c2c1 | inactive: -7.72% | 
13 | CN(C)CCCNc1ncnc2scc(-c3ccccc3)c12 |  | inconclusive: 31.6 µM [inhibitor, single point]
14 | C=CCn1c(=O)/c(=C\c2ccsc2)s/c1=C(/C#N)C(=O)NCCN1CCOCC1 | inactive: 83.5% | 
15 | Cc1ccc(C(CNC(=O)c2ccco2)N2CCN(C)CC2)cc1 (stereo unspecified) |  | inconclusive: 6.31 µM [inhibitor, single point]
16 | COc1ccc(C=NNc2ccc([N+](=O)[O-])cc2S(=O)(=O)Nc2ccccc2C(=O)O)cc1OC |  | inconclusive: 20 µM [inhibitor, single point]
17 | Cc1nc2nc(SCC(=O)NC3CCCCC3)nn2c(C)c1Cc1ccccc1Cl |  | inconclusive: 12.6 µM [inhibitor, single point]
18 | N#CC1(NC(=O)CSc2nnc(C3CC3)n2N)CCCCC1 | inactive: 5.09% | 

Row | Compound | activity, negative = inhibition | Potency
19 | COCCNc1nc2c(c(=O)n(Cc3cccc(Br)c3)c(=O)n2C)n1C |  | inconclusive: 1.58 µM [inhibitor, partial curve, poor fit]
20 | CCOc1ccc(S(=O)(=O)NCCC(=O)OCC(=O)c2ccc(NC(C)=O)cc2)cc1 |  | inconclusive: 0.0891 µM [inhibitor, full curve, poor fit]
21 | Nc1ccc2c(c1)OC1(CCCCC1)O2 | inactive: -5.57% | 
22 | COc1ccccc1Cc1c(-c2ccccc2)nc2ccc(Br)cn12 |  | inconclusive: 25.1 µM [inhibitor, single point]
23 | O=C(CN1CCN(Cc2ccc(Cl)cc2)CC1)N/N=C/c1ccccc1F |  | inconclusive: 14.1 µM [inhibitor, partial curve, poor fit]
24 | COc1ccccc1/C=C/C(=O)OCC(=O)Nc1ccc(Cl)cn1 | inactive: -10.7% | 
25 | CC12CCC(=O)N1C(C(=O)Nc1nc3ccc(Cl)cc3s1)CS2 (stereo unspecified) | inactive: -26.2% | 
26 | Cc1ccc(CN(Cc2ccco2)C(=O)COc2ccccc2C)cc1 |  | inconclusive: 35.5 µM [inhibitor, single point]
27 | O=Cc1cc(OCc2ccccc2)ccc1[B-](F)(F)F |  | inconclusive: 35.5 µM [inhibitor, single point]
28 | O=C1C=C(Nc2ccccc2O)c2ccccc2C1=O |  | active: 1.78 µM
29 | COc1cccc(CN2CCC(C(=O)Nc3ccc(Oc4cccnc4)cc3)CC2)c1 |  | inconclusive: 20 µM [inhibitor, single point]
30 | COc1cccc(C2=C(C(C)=O)Sc3nncn3N2C(C)=O)c1 |  | inconclusive: 20 µM [inhibitor, single point]
31 | COC(=O)c1ccc(N=c2sc(C(=O)OC)cc(=O)n2C)cc1 | inactive: 1.7% | 
32 | CC[C@]12c3[nH]c4ccc(Cl)cc4c3CCN1C(=O)[C@@H](CC(=O)NCc1ccco1)C[C@@H]2C(=O)N1CCN(C(=O)C2CC2)CC1 |  | inconclusive: 25.1 µM [inhibitor, single point]
33 | COc1ccc(CCNc2cc(C)nc3c(-c4ccc(Cl)cc4)cnn23)cc1OC |  | inconclusive: 11.2 µM [inhibitor, single point]
34 | Clc1ccc2c(NCCNC3CCCCC3)ccnc2c1 |  | inconclusive: 35.5 µM [inhibitor, single point]
35 | C=C(C)Cn1c(CCNC(=O)CC)nc2ccccc21 |  | inconclusive: 3.55 µM [inhibitor, partial curve, poor fit]
36 | CCOc1ccc(CCNc2ncnc3onc(-c4ccc(Cl)cc4)c23)cc1OCC |  | inconclusive: 22.4 µM [inhibitor, partial curve, poor fit]

From PubChem BioAssay AID588855 (National Center for Advancing Translational Sciences (NCATS), 2011)
